Structures can show the parent of a compound that is named as a salt.
Test system: cardiac arrhythmias in anesthetized rats subjected to coronary artery occlusion
Experiment: Antiarrhythmic efficacy: arrhythmias after coronary artery occlusion in anesthetized rats
Format: in vivo, rat
Settings: infusion rate reducing arrhythmia score to 50% of vehicle

SMILES: COc1ccc(CCO[C@H]2CCCC[C@@H]2N2CC[C@@H](O)C2)cc1OC.Cl [Compound 2, (1S,2S)-2-[(3R)-Hydroxypyrrolidinyl]-1-(3,4-dimethoxyphenethoxy)cyclohexane monohydrochloride]
- ED50AA: 1.2 µmol/kg/min

SMILES: COc1ccc(CCO[C@H]2CCCCC2N2CCC(O)C2)cc1OC (stereo partly drawn) [Compound 3, (1R,2R)/(1S,2S)-2-[(3R)/(3S)-Hydroxypyrrolidinyl]-1-(3,4-dimethoxyphenethoxy)-cyclohexane monohydrochloride]
- ED50AA: 1.3 µmol/kg/min

SMILES: COc1ccc(CCO[C@H]2CCCCC2N2CC[C@@H](O)C2)cc1OC.Cl (stereo partly drawn) [Compound 4, (1R,2R)/(1S,2S)-2-[(3R)-Hydroxypyrrolidinyl]-1-(3,4-dimethoxyphenethoxy)-cyclohexane monohydrochloride]
- ED50AA: 0.8 µmol/kg/min

SMILES: COc1ccc(CCO[C@H]2CCCCC2N2CC[C@H](O)C2)cc1OC.Cl (stereo partly drawn) [Compound 5, (1R,2R)/(1S,2S)-2-[(3S)-Hydroxypyrrolidinyl]-1-(3,4-dimethoxyphenethoxy)-cyclohexane monohydrochloride]
- ED50AA: 0.7 µmol/kg/min

SMILES: COc1ccc(CCO[C@@H]2CCCC[C@H]2N2CC[C@H](O)C2)cc1OC.Cl [Compound 6, (1R,2R)-2-[(3S)-Hydroxypyrrolidinyl]-1-(3,4-dimethoxyphenethoxy) cyclohexane monohydrochloride]
- ED50AA: 1.6 µmol/kg/min

SMILES: COc1ccc(CCO[C@H]2CCCC[C@@H]2N2CC[C@H](O)C2)cc1OC.Cl [Compound 7, (1S,2S)-2-[(3S)-Hydroxypyrrolidinyl]-1-(3,4-dimethoxyphenethoxy)cyclohexane monohydrochloride]
- ED50AA: 0.9 µmol/kg/min

SMILES: COc1ccc(CCO[C@H]2CCCCC2N2CC[C@H](OCc3ccccc3)C2)cc1OC.Cl (stereo partly drawn) [Compound 11, (3S)-3-benzyloxy-1-{(1R,2R)/(1S,2S)-2-[2-(3,4-dimethoxyphenyl)-ethoxy]cyclohexyl}-pyrrolidine hydrochloride]
- ED50AA: 0.5 µmol/kg/min

SMILES: COc1ccc(CCO[C@H]2CCCCC2N2CC[C@@H](OCc3ccccc3)C2)cc1OC.Cl (stereo partly drawn) [Compound 12, (3R)-3-benzyloxy-1-{(1R,2R)/(1S,2S)-2-[2-(3,4-dimethoxyphenyl)-ethoxy]cyclohexyl}-pyrrolidine hydrochloride]
- ED50AA: 1 µmol/kg/min

SMILES: COc1ccc(CCO[C@H]2CCCCC2N2CC[C@H](OC(C)=O)C2)cc1OC.Cl (stereo partly drawn) [Compound 13, (3S)-1-{(1R,2R)/(1S,2S)-2-[2-(3,4-dimethoxyphenyl)-ethoxy]cyclohexyl}-pyrrolidin-3-yl acetate hydrochloride]
- ED50AA: 1.3 µmol/kg/min

SMILES: COc1ccc(CCOC2CCCC[C@H]2N2CCC(F)C2)cc1OC.Cl (stereo partly drawn) [Compound 14, (3R)/(3S)-1-{(1R,2R)/(1S,2S)-2-[2-(3,4-dimethoxyphenyl)-ethoxy]cyclohexyl}-3-fluoropyrrolidine hydrochloride]
- ED50AA: 1.4 µmol/kg/min

SMILES: COc1ccc(CCO[C@H]2CCCCC2N2CCC[C@@H]2CO)cc1OC.Cl (stereo partly drawn) [Compound 15, {(2R)-1-{(1R,2R)/(1S,2S)-2-[2-(3,4-dimethoxyphenyl)-ethoxy]cyclohexyl}-pyrrolidin-2-yl}methanol hydrochloride]
- ED50AA: 0.8 µmol/kg/min

SMILES: COc1ccc(CCOC2CCCC[C@H]2N2CC=CC2)cc1OC.Cl (stereo partly drawn) [Compound 16, 1-{(1R,2R)/(1S,2S)-2-[2-(3,4-dimethoxyphenyl)-ethoxy]cyclohexyl}-2,5-dihydro-1H-pyrrole hydrochloride]
- ED50AA: 2.4 µmol/kg/min

SMILES: COc1ccc(CCO[C@@H]2CCCC[C@H]2N2CC[C@@H](OC(C)=O)C2)cc1OC.Cl [Compound 17, (3R)-1-{(1R,2R)-2-[2-(3,4-dimethoxyphenyl)-ethoxy]cyclohexyl}-pyrrolidin-3-yl acetate hydrochloride]
- ED50AA: 2.1 µmol/kg/min

SMILES: COc1ccc(CCCO[C@H]2CCCCC2N2CCOCC2)cc1OC.Cl (stereo partly drawn) [Compound 19, 4-{(1R,2R)/(1S,2S)-2-[3-(3,4-dimethoxyphenyl)-propoxy]cyclohexyl}morpholine hydrochloride]
- ED50AA: 1.5 µmol/kg/min

SMILES: COc1cc(CCCO[C@H]2CCCCC2N2CC[C@@H](O)C2)cc(Cl)c1OC.Cl (stereo partly drawn) [Compound 21, (3R)-1-{(1R,2R)/(1S,2S)-2-[3-(3-chloro-4,5-dimethoxyphenyl)-propoxy]cyclohexyl}pyrrolidin-3-ol hydrochloride]
- ED50AA: 0.6 µmol/kg/min

SMILES: COc1ccc(CCOC2CCCC[C@H]2N2CCN(C(=O)Cc3ccc(OC)c(OC)c3)CC2)cc1OC.Cl (stereo partly drawn) [Compound 22, 1-[(3,4-dimethoxyphenyl)acetyl]-4-{(1R,2R)/(1S,2S)-2-[2-(3,4-dimethoxyphenyl)-ethoxy]cyclohexyl}-piperazine hydrochloride]
- ED50AA: 0.6 µmol/kg/min

SMILES: Cl.OC1CCN(C2CCCC[C@@H]2OCCc2c(Cl)cccc2Cl)C1 (stereo partly drawn) [Compound 23, (3R)/(3S)-1-{(1R,2R)/(1S,2S)-2-[2-(2,6-dichlorophenyl)-ethoxy]cyclohexyl}-pyrrolidin-3-ol hydrochloride]
- ED50AA: 0.6 µmol/kg/min

SMILES: Cl.OC1CCN(C2CCCC[C@@H]2OCCc2ccccc2Br)C1 (stereo partly drawn) [Compound 24, (3R)/(3S)-1-{(1R,2R)/(1S,2S)-2-[2-(2-bromophenyl)-ethoxy]cyclohexyl}-pyrrolidin-3-ol hydrochloride]
- ED50AA: 0.4 µmol/kg/min

SMILES: Cl.OC1CCN([C@@H]2CCCC[C@@H]2OCCc2cccc3ccccc23)C1 (stereo partly drawn) [Compound 25, (3R)/(3S)-1-{(1R,2S)/(1S,2R)-2-[2-(1-naphthyl)ethoxy]-cyclohexyl}-pyrrolidin-3-ol hydrochloride]
- ED50AA: 0.4 µmol/kg/min

SMILES: Cl.O[C@@H]1CCN(C2CCCC[C@@H]2OCCc2ccccc2C(F)(F)F)C1 (stereo partly drawn) [Compound 27, (3R)-1-{(1R,2R)/(1S,2S)-2-[2-(2-Trifluoromethyl-phenyl)ethoxy]-cyclohexyl}-pyrrolidin-3-ol hydrochloride]
- ED50AA: 0.7 µmol/kg/min

SMILES: Cl.OC1CCN(C2CCCC[C@@H]2OCCn2ccc3ccccc32)C1 (stereo partly drawn) [Compound 28, (3R)/(3S)-1-{(1R,2R)/(1S,2S)-2-[2-(1H-indol-1-yl)ethoxy]cyclohexyl}pyrrolidin-3-ol hydrochloride]
- ED50AA: 0.6 µmol/kg/min

SMILES: Cl.O[C@@H]1CCN(C2CCCC[C@@H]2OCCc2cc3ccccc3o2)C1 (stereo partly drawn) [Compound 29, (3R)-1-{(1R,2R)/(1S,2S)-2-[2-(1-benzofuran-2-yl)ethoxy]-cyclohexyl}-pyrrolidin-3-ol hydrochloride]
- ED50AA: 1 µmol/kg/min

SMILES: c1ccc2cc(CCO[C@H]3CCCCC3N3CCOCC3)ccc2c1 (stereo partly drawn) [Compound 30, (1R,2R)/(1S,2S)-[2-(4-morpholinyl)-1-(2-naphthenethoxy)]-cyclohexane]
- ED50AA: 0.8 µmol/kg/min

SMILES: c1ccc2c(CCO[C@H]3CCCCC3N3CCOCC3)cccc2c1 (stereo partly drawn) [Compound 31, (1R,2R)/(1S,2S)-[2-(4-morpholinyl)-1-(1-naphthenethoxy)]-cyclohexane]
- ED50AA: 1 µmol/kg/min

SMILES: c1ccc2cc(OCCO[C@H]3CCCCC3N3CCOCC3)ccc2c1 (stereo partly drawn) [Compound 33, (1R,2R)/(1S,2S)-[2-(4-morpholinyl)-1-[2-(2-naphthoxy)ethoxy]]-cyclohexane]
- ED50AA: 2 µmol/kg/min

SMILES: Brc1ccc(OCCO[C@H]2CCCCC2N2CCOCC2)cc1 (stereo partly drawn) [Compound 34, (1R,2R)/(1S,2S)-[2-(4-morpholinyl)-1-[2-(4-bromophenoxy)-ethoxy]]cyclohexane]
- ED50AA: 3 µmol/kg/min

SMILES: COc1ccc(CCO[C@H]2CCCCC2N2CCOCC2)cc1OC (stereo partly drawn) [Compound 35, (1R,2R)/(1S,2S)-[2-(4-morpholinyl)-1-(3,4-dimethoxy-phenethoxy)]-cyclohexane]
- ED50AA: 4 µmol/kg/min

SMILES: c1ccc2c(CCO[C@H]3CCCCC3N3CCOCC3)csc2c1 (stereo partly shown) [Compound 36]
- ED50AA: 1 µmol/kg/min

SMILES: c1cc(CCO[C@H]2CCCCC2N2CCOCC2)c2ccsc2c1 (stereo partly shown) [Compound 37]
- ED50AA: 1 µmol/kg/min

SMILES: Brc1cccc(CCO[C@H]2CCCCC2N2CCOCC2)c1 (stereo partly drawn) [Compound 38, (1R,2R)/(1S,2S)-[2-(4-morpholinyl)-1-(3-bromophenethoxy)]-cyclohexane]
- ED50AA: 2 µmol/kg/min

SMILES: Brc1ccccc1CCO[C@H]1CCCCC1N1CCOCC1 (stereo partly drawn) [Compound 39, (1R,2R)/(1S,2S)-[2-(4-morpholinyl)-1-(2-bromophenethoxy)]-cyclohexane]
- ED50AA: 1 µmol/kg/min
